The other results are listed elsewhere or left out. Many values rest on one well or one pass, so single values are uncertain.
System: WM1745
Assay: cell count relative to DMSO control; melanoma cells; higher = more viable cells
Conditions: library dose: low library concentration; 72 h
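Further: cell number obtained by counting DAPI-stained nuclei in high-throughput microscope images with image analysis software, screen run in 1,536-well plates.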

SMILES | cell count [%]
CC(=O)c1c(C)c2cnc(Nc3ccc(N4CCNCC4)cn3)nc2n(C2CCCC2)c1=O [palbociclib] + O=S(=O)(c1ccccc1)N(CC(F)(F)F)c1ccc(C(O)(C(F)(F)F)C(F)(F)F)cc1 [T0901317] (first compound 0.04 µM, partner dose 1.4 µM) | 63
Nc1ccn([C@@H]2O[C@H](CO)[C@@H](O)C2(F)F)c(=O)n1 [gemcitabine] + Nc1nc(F)nc2c1ncn2[C@@H]1O[C@H](CO)[C@@H](O)[C@@H]1O [fludarabine] (first compound 0.0004 µM, partner dose 0.2 µM) | 59.3
Nc1ncn([C@H]2C[C@H](O)[C@@H](CO)O2)c(=O)n1 [decitabine] + COc1cc(N2CCC(N3CCN(C)CC3)CC2)ccc1Nc1ncc(Cl)c(Nc2ccccc2S(=O)(=O)C(C)C)n1 [NVP-TAE684] (first compound 0.1 µM, partner dose 0.08 µM) | 92.2
Nc1nc(F)nc2c1ncn2[C@@H]1O[C@H](CO)[C@@H](O)[C@@H]1O [fludarabine] + COc1cc2c(Oc3ccc4[nH]c(C)cc4c3F)ncnc2cc1OCCCN1CCCC1 [cediranib] (first compound 0.2 µM, partner dose 0.4 µM) | 95.7
CO[C@H]1C[C@@H]2CC[C@@H](C)[C@@](O)(O2)C(=O)C(=O)N2CCCC[C@H]2C(=O)O[C@H]([C@H](C)C[C@@H]2CC[C@@H](OCCO)[C@H](OC)C2)CC(=O)[C@H](C)/C=C(\C)[C@@H](O)[C@@H](OC)C(=O)[C@H](C)C[C@H](C)/C=C/C=C/C=C/1C [everolimus] + COc1ccc(Cl)c(Nc2nc3ccccc3nc2NS(=O)(=O)c2cccc(NC(=O)C(C)(C)N)c2)c1 [XL147] (first compound 0.02 µM, partner dose 0.8 µM) | 99.7

From the supplement of paper PMC4604168 (melanoma cell lines)
